Data as given in publication doi:10.1101/2025.04.04.647053 (bioRxiv, 2025).

Target: CLASPIN (H. sapiens, UniProt Q9HAW4)
Assay: cryo-EM structure

B1: MCM2 (natural protein)
chain: not shown
binding result: binds
